{
  "source": "paper PMC4336329",
  "about": "(PLoS ONE, 2015)",
  "note": "Among all 310,000 compounds or so, about 14,000 (4.5%) showed an effect of 50% or more. Effects have a minus sign here. The list shows a part of the results.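 Also: peak tail current of the secondary pulse compared with the same well before compound.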",
  "data": [
    {"biological_target": "human ether-à-go-go-related gene (hERG) potassium channel (human, UniProt Q12809)", "sequence (Q12809 whole entry, looked up)": "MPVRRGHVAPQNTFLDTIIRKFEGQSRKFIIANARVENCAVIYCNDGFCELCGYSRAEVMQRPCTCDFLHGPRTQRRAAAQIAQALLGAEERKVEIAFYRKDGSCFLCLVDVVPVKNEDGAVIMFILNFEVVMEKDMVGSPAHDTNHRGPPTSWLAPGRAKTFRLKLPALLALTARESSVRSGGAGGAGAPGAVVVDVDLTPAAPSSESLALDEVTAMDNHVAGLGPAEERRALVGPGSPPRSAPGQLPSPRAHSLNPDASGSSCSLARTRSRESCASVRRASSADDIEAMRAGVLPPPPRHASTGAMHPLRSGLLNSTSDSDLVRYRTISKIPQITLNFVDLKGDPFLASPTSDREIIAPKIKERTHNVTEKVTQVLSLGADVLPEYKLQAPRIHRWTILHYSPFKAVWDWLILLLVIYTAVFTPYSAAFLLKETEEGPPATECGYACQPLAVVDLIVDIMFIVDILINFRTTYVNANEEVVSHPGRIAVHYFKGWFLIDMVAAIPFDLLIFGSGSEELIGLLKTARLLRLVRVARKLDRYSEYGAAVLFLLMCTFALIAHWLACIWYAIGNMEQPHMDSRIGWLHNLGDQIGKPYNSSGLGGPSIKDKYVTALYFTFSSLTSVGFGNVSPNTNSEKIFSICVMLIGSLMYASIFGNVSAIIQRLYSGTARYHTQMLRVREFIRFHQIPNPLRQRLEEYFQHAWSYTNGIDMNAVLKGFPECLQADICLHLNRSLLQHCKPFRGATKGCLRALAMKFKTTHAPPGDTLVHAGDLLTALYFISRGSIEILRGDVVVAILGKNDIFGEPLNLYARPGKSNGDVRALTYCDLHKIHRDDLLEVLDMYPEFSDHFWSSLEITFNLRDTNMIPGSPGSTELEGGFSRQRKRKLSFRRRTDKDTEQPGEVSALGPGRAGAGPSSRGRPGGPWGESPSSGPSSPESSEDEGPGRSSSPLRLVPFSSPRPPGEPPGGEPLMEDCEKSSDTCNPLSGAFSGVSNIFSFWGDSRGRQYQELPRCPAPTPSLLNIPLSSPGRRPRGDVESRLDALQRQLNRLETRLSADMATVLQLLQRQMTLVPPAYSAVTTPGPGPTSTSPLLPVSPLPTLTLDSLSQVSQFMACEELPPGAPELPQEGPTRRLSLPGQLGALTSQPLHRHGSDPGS", "test": "primary screen, population patch clamp on CHO cells stably expressing hERG", "units": {"hERG current change (%, negative = inhibition) at 10uM": "%"}, "values": [
      {"smiles": "COc1ccc(NC(=O)N2CCN(C(=O)c3ccco3)CC2)c(OC)c1", "hERG current change (%, negative = inhibition) at 10uM": -12},
      {"smiles": "Cn1ccnc1C(O)c1cc(C(C)(C)C)c(O)c(C(C)(C)C)c1", "note": "(stereo not drawn)", "hERG current change (%, negative = inhibition) at 10uM": -37.3},
      {"smiles": "CC(c1nnc(SCn2nnc3ccccc3c2=O)n1-c1ccc(Cl)cc1)N(C)C", "note": "(stereo not drawn)", "hERG current change (%, negative = inhibition) at 10uM": -10},
      {"smiles": "CC(=O)Nc1cc(C(F)(F)F)ccc1N1CCOCC1", "hERG current change (%, negative = inhibition) at 10uM": -24},
      {"smiles": "O=C(C1COc2ccccc2O1)N1CCN(c2nc3ccccc3s2)CC1", "note": "(stereo not drawn)", "hERG current change (%, negative = inhibition) at 10uM": -27.9},
      {"smiles": "Cc1c(C(=O)N2CCCCCC2)c(S(=O)(=O)Nc2ccccc2F)c(C)n1C", "hERG current change (%, negative = inhibition) at 10uM": -6.6},
      {"smiles": "Cc1ccccc1C(=O)c1cn[nH]c1-c1ccccc1O", "hERG current change (%, negative = inhibition) at 10uM": 8.84},
      {"smiles": "CCCN1C2CCCC1CC(NC(=S)Nc1cc(C)ccc1C)C2", "note": "(stereo not drawn)", "hERG current change (%, negative = inhibition) at 10uM": 11.6},
      {"smiles": "Cc1nc(Nc2ccc(Br)cc2Br)c([N+](=O)[O-])c(=O)[nH]1", "hERG current change (%, negative = inhibition) at 10uM": -2.87},
      {"smiles": "Cc1ccc(CC(=O)Nc2ccc(OC(F)F)c(Cl)c2)cc1C", "hERG current change (%, negative = inhibition) at 10uM": -5.51},
      {"smiles": "Cc1cc(C)cc(C(=O)NCCn2cc(SCC(=O)N3CCOCC3)c3ccccc32)c1", "hERG current change (%, negative = inhibition) at 10uM": -9.88},
      {"smiles": "CCOc1c(OC(C)=O)ccc(/C=C/c2ccc3cccc(OC(C)=O)c3n2)c1[N+](=O)[O-]", "hERG current change (%, negative = inhibition) at 10uM": -4.23},
      {"smiles": "CCOCCCN(C)C1CCN(S(=O)(=O)c2csc(C(N)=O)c2)CC1", "hERG current change (%, negative = inhibition) at 10uM": 6.89},
      {"smiles": "O=C(CCC(=O)Nc1ccccc1)NNC(=O)COc1ccccc1", "hERG current change (%, negative = inhibition) at 10uM": 10.2},
      {"smiles": "COC(=O)c1ccccc1NC(=O)c1ccc(NC(=O)C2CCCO2)cc1", "note": "(stereo not drawn)", "hERG current change (%, negative = inhibition) at 10uM": -16.1},
      {"smiles": "Cc1cccc(N=Nc2cnc(N)s2)c1", "hERG current change (%, negative = inhibition) at 10uM": 6.76},
      {"smiles": "CCCc1ccc(-c2cc(C(=O)NC3=NCCS3)c3ccccc3n2)cc1", "hERG current change (%, negative = inhibition) at 10uM": -2.06},
      {"smiles": "CC(=O)Nc1ccc(N2C(=O)CSC2c2ccccc2)cc1", "note": "(stereo not drawn)", "hERG current change (%, negative = inhibition) at 10uM": 9.14},
      {"smiles": "COc1cccc(NC(=O)C2CCCN2C(=O)Nc2ccccc2F)c1", "note": "(stereo not drawn)", "hERG current change (%, negative = inhibition) at 10uM": -12.2},
      {"smiles": "CC(C)(C)n1nc2c(c1NC(=O)COc1ccccc1F)CS(=O)(=O)C2", "hERG current change (%, negative = inhibition) at 10uM": -1.29},
      {"smiles": "Cc1[nH]n(-c2ccccc2)c(=O)c1N=Nc1ccc(C(N)=O)cc1", "hERG current change (%, negative = inhibition) at 10uM": 19.5},
      {"smiles": "Cc1coc2cc3oc(=O)c4c(c3cc12)CCC4", "hERG current change (%, negative = inhibition) at 10uM": 15.5},
      {"smiles": "CC(C)C[C@@H](CO)N1CCN(Cc2cccnc2)CCC1=O", "hERG current change (%, negative = inhibition) at 10uM": 3.69},
      {"smiles": "CCc1c(C(=O)NN2C(=O)C3CCCCC3C2=O)csc1C", "note": "(stereo not drawn)", "hERG current change (%, negative = inhibition) at 10uM": 6},
      {"smiles": "COc1ccc(OC(C)C(=O)Nc2ccccc2F)cc1", "note": "(stereo not drawn)", "hERG current change (%, negative = inhibition) at 10uM": 13.1},
      {"smiles": "O=C(CCN1C(=O)C2C3C=CC(C3)C2C1=O)NC1CCCc2ccccc21", "note": "(stereo not drawn)", "hERG current change (%, negative = inhibition) at 10uM": 2.8},
      {"smiles": "COc1cc2c(c(O)c1OC)C(=O)C(OC)CCC2", "note": "(stereo not drawn)", "hERG current change (%, negative = inhibition) at 10uM": -3.32},
      {"smiles": "CC(=O)c1c(C)[nH]c(C(=O)COC(=O)COc2ccccc2F)c1C", "hERG current change (%, negative = inhibition) at 10uM": -3.3},
      {"smiles": "Cc1nn(C2CCS(=O)(=O)C2)c(Cl)c1/C=C/C(=O)OCC(=O)N(C)C", "note": "(stereo not drawn)", "hERG current change (%, negative = inhibition) at 10uM": 11.3},
      {"smiles": "Cc1ccc(S(=O)(=O)N2CCC(=O)N(C(COCc3ccccc3)Cc3ccccc3)CC2)cc1", "note": "(stereo not drawn)", "hERG current change (%, negative = inhibition) at 10uM": 14.6},
      {"smiles": "COc1ccccc1N1CCN(C(=O)CN(Cc2ccc(Cl)cc2)S(C)(=O)=O)CC1", "hERG current change (%, negative = inhibition) at 10uM": -4.32},
      {"smiles": "Cl.O=C(CNCC(=O)Nc1ccc(F)c(F)c1F)Nc1ccc(F)c(F)c1F", "hERG current change (%, negative = inhibition) at 10uM": -0.133},
      {"smiles": "COc1ccc(-c2[nH]ncc2CN2CCC(OCc3cccnc3)CC2)c(F)c1", "hERG current change (%, negative = inhibition) at 10uM": -37.1},
      {"smiles": "CCc1ccccc1-n1nnnc1-c1cnccc1C(F)(F)F", "hERG current change (%, negative = inhibition) at 10uM": -0.285},
      {"smiles": "O=C(Nc1ccccc1)Nc1nnc(Cc2ccc(F)cc2)s1", "hERG current change (%, negative = inhibition) at 10uM": 20.1},
      {"smiles": "CCc1ccc(OC)c(-c2csc(N)n2)c1", "hERG current change (%, negative = inhibition) at 10uM": 0.446},
      {"smiles": "O=C1C=C(NC2=CC3OC(c4ccccc4)OCC3OC2=O)CCC1", "note": "(stereo not drawn)", "hERG current change (%, negative = inhibition) at 10uM": 9.91},
      {"smiles": "CN(C)c1ccc(/C=N/N(CCO)C2=NS(=O)(=O)c3ccccc32)cc1", "hERG current change (%, negative = inhibition) at 10uM": 21.8},
      {"smiles": "COc1ccc(/C=C/c2cc(C(=O)O)c3ccccc3n2)cc1", "hERG current change (%, negative = inhibition) at 10uM": 11.6},
      {"smiles": "CC(C)N(C(=O)Cn1c(SCC(=O)NC2CC2)nc2ccccc21)C(C)C", "hERG current change (%, negative = inhibition) at 10uM": -10.5},
      {"smiles": "O=C(O)[C@H](Cc1ccccc1)N1Cc2ccccc2C1=O", "hERG current change (%, negative = inhibition) at 10uM": -4.51},
      {"smiles": "CCOc1ccccc1N=Nc1c(C)[nH]n(-c2ccccc2)c1=O", "hERG current change (%, negative = inhibition) at 10uM": 16.1},
      {"smiles": "O=C(Nc1ccccc1)c1ccsc1", "hERG current change (%, negative = inhibition) at 10uM": -0.506},
      {"smiles": "Cc1cccc(N2CCN(CC(=O)N(C)Cc3ccccc3)CC2C)c1", "note": "(stereo not drawn)", "hERG current change (%, negative = inhibition) at 10uM": -7.75},
      {"smiles": "c1ccc(-n2nc3c(ccc4cnnc43)[nH]2)cc1", "hERG current change (%, negative = inhibition) at 10uM": -4.44}
    ]}
  ]
}
